Where “and” joins values, the source holds several entries; their conditions need not be identical. Identical values can stand only once. In all, about 13,000 compounds were measured (“IFI”: median about 4, highest 2% from about 17 on). This is one part of the list.
assay: GSK_TCMDC: Inhibition Frequency Index (IFI). The number of non-kinase HTS assays where a compound showed > 50 % inhibition, expressed as a percentage of the number of such assays in which the compound was tested (-0 is zero); assay type: functional

| SMILES | IFI |
| --- | --- |
| COc1ccc(CN(C)C(=O)CCNS(=O)(=O)c2ccc3c(c2)OCCCO3)cc1F | 0% |
| CNC(=S)NCc1cnc2ccccn12 | 0.71% |
| Cc1noc(C)c1-c1ccc2c(Nc3ccccc3C(C)(C)C)c(C(=O)NCc3cccc4ccccc34)cnc2c1 | -0% |
| Cc1ccc(-c2noc(COc3ccccc3C(=O)NC3CCCC3)n2)cc1 | 2.33% |
| c1ccc(CNc2nc(NCCN3CCCCC3)nc3ccccc23)cc1 | 0% |
| c1cc(CNCC2CCCO2)cc(-c2csc(-c3nc4ccccc4[nH]3)c2)c1 (stereo not drawn) | 1% |
| COc1cccc(C(=O)NC(NC(=S)Nc2ccc(OC)cc2[N+](=O)[O-])C(Cl)(Cl)Cl)c1 (stereo not drawn) | 1.47% |
| c1cc(Nc2nccc(-c3cnn4ncccc34)n2)cc(-c2cnco2)c1 | 9.23% |
| COc1cccc(CCN(Cc2ccccc2-c2ccc(CNC3CC(C)(C)NC(C)(C)C3)cc2)C(=O)NC2CCCCC2)c1 | 12.9% |
| Cc1cc(=NN=Cc2cccc(F)c2)c2cc(F)ccc2[nH]1 | 1.46% |
| Cc1cccc2nc(-c3ccc(-c4cccc(CN5CCC(CCN6CCCCC6)CC5)c4)s3)[nH]c12 | 7.04% |
| Cc1ccc2nc(C)cc(N/N=C/c3ccccc3[N+](=O)[O-])c2c1 | 4.35% |
| CCNc1cc(C)nc(Nc2ccc(NS(=O)(=O)c3ccccc3)cc2)n1 | 20.4% |
| CCNc1cc(-c2cccc(OC)c2)nc(Nc2ccc(F)cc2)n1 | 2.82% |
| c1cc(CNCCc2ccncc2)cc(-c2ccc(-c3nc4ccccc4[nH]3)s2)c1 | 2.02% |
| O=C(Nc1ccc(-c2nc3ccccc3[nH]2)cc1)c1ccc(Cl)c([N+](=O)[O-])c1 | 2.31% |
| CN(C)CCN(C)Cc1ccc(-c2ccc3c(Nc4ccc(Oc5ccccc5)cc4)ccnc3c2)o1 | 14.9% |
| Cc1cc(N[C@@H](Cc2ccccc2)C(=O)NCCCOC(C)C)nc(NCC2CCCCC2)n1 | 4.88% |
| Cc1cc(C)c(-c2n[nH]c3c2C(c2cccc(Cl)c2)N(Cc2ccco2)C3=O)c(O)c1 (stereo not drawn) | 13% |
| CC(C)c1sc(N2CCN(C)CC2)nc1C(=O)Nc1ccc(F)cc1C(F)(F)F | 5.77% |

| SMILES | IFI |
| --- | --- |
| c1ccc2c(c1)CN(Cc1ccsc1)CC1(CCN(Cc3c[nH]c4cnccc34)CC1)O2 | 3.17% |
| Cn1cnc(CCNC(=O)c2ccc(-c3ccc(-c4nc5cc(C(F)(F)F)ccc5[nH]4)s3)cc2)c1 | 3.81% |
| Cc1nnc2c(NC(=O)NC3CCCC3)cc3ccc(-c4cccc(CN5CCN(C)CC5)c4)cc3n12 | 8.33% |
| COCCNCc1ccc(-c2cccc(CNc3ccc(OC)cc3)c2)cc1 | 0.73% |
| Nc1nc(N)c2c(Cc3ccccc3)cccc2n1 | 5.88% |
| CC(C)(C)CC(C)(C)c1ccc(O)c(C(=O)Nc2cccc([N+](=O)[O-])c2)c1 | 12.9% |
| CCc1cc(C(=O)c2cccc(C)c2)c(NC(=O)CN2CCN(C(=O)c3ccco3)CC2)s1 | 1.44% |
| COc1cccc(Nc2nccc(NCC(O)c3ccc(C(F)(F)F)cc3)n2)c1 (stereo not drawn) | 7.77% |
| CCOc1cc(Cc2cnc(N)nc2N)ccc1OC | 2.92% |
| N#Cc1ccc2c(c1)CCN(CCC1CCC(NC(=O)Nc3cnc4ccccc4c3)CC1)C2 (stereo not drawn) | 2.33% |
| Cc1ccc([S+]([O-])Cc2ccc(Cl)cc2)cc1 (stereo not drawn) | -0% |
| COc1ccc(-c2cc(C(=O)N[C@@H](CC3CCCCC3)C(=O)NCCN3CCCC3)ccc2O)cc1 | 3.45% |
| COc1cc(Cc2cnc(N)nc2N)cc(OC)c1OC | 2.26% |
| COc1ccccc1CCN(C)CCN1CCC(NC(=O)c2ccc(-c3ccc(C(F)(F)F)cc3)cc2)CC1 | 6.19% |
| CCNc1cc(C(=O)N[C@@H](Cc2ccccc2)[C@H](O)CNC(C)CC(C)C)c(F)c(N2CCCCS2(=O)=O)c1 (stereo partly drawn) | 0.7% |
| O=C(Nc1cccc(CN2CCN(Cc3cccc(O)c3)CC2)c1)c1cc2ccccc2s1 | 2.8% |
| CC(C)N1CCC(N(Cc2ccc(-c3ccc(C(F)(F)F)cc3)cc2)C(=O)Cn2c(CCc3cccc(F)c3F)cc(=O)c3ccccc32)CC1 | 6.43% |
| CC(CN1CCN(C)CC1)C(=O)Nc1ccc(-c2ccc(-c3nc4cc(F)ccc4[nH]3)cc2)cc1 (stereo not drawn) | 4.35% |
| CN1CCC(NCc2ccc(S(=O)(=O)Nc3ccc(Oc4cccc(Cl)c4)cc3)cc2)CC1 | 11.2% |
| Cc1cnc(C(=O)Nc2cccc(-c3cccc(-c4nc5cccc(C)c5[nH]4)c3)c2)cn1 | 1.79% |

| SMILES | IFI |
| --- | --- |
| Cc1cc(C)c2cc(CNCCCNc3nc4ccccc4[nH]3)[nH]c2c1 | 7.04% |
| CC(C)CCN1CCC(Oc2ccc(NC(=O)c3ccc(F)cc3)cc2Cl)CC1 | 6.45% |
| Nc1nc(N)c2c(CCc3ccc4ccccc4c3)cccc2n1 | 7.53% |
| CS(=O)(=O)NCCCNCc1ccc(-c2ccc(-c3nc4cc(C(F)(F)F)ccc4[nH]3)s2)cc1 | 4.95% |
| c1ccc2c(c1)CN(Cc1cc3ccccc3[nH]1)CC1(CCN(Cc3c[nH]c4cnccc34)CC1)O2 | 11.1% |
| COc1cc(C(=O)Nc2nc3ccccc3[nH]2)ccc1OCC(=O)Nc1cccc(C(F)(F)F)c1 | 4.04% |
| CN1CCC(N2CCN(Cc3cccc(-c4ccc(-c5nc6ccccc6[nH]5)cc4)c3)CC2)CC1 | 5.63% |
| Brc1ccc(Nc2ccnc3cc(-c4nccs4)ccc23)cc1Oc1ccnc2cc(-c3nccs3)ccc12 | 3.52% |
| CN1CCC(NCc2ccc(-c3cccc(S(=O)(=O)NCC4CCCO4)c3)cc2)CC1 (stereo not drawn) | 1.94% |
| O=C1CSc2ccc(CNC3CCN(CCc4c(Cl)cnc5ccc(Cl)cc45)CC3)nc2N1 | 2.31% |
| CCC(CC(NCCCCNC(=O)c1ccc(NC(=O)c2ccc(Cl)cc2)cc1)c1ccccc1)c1ccccc1OC (stereo not drawn) | 7.35% and 1.48% |
| O=S(=O)(Nc1ccc(CCN2CCC(N3CCCCC3)CC2)cc1)c1ccc(Cl)cc1 | 4.84% |
| COc1ccc2[nH]c(C)cc(=NN=Cc3ccccc3)c2c1 | -0% |
| CC(C)(C)c1ccc(OCCCON2C(N)=NC(N)=NC2(C)C)cc1 | 18.1% |
| O=C(NCCc1ccccc1)N(Cc1ccccc1-c1ccc(CNCCc2ccccc2)cc1)C1CCN(Cc2ccccc2)CC1 | 7.86% |
| CN(c1ccc(NC(=O)Nc2cc(C(C)(C)C)on2)cc1)c1ccnc(NCCN2CCOCC2)n1 | 10.3% |
| c1ccc(Oc2ccc(Nc3ccnc(Nc4cccc(CNCCCN5CCOCC5)c4)n3)cc2)cc1 | 7.41% |
| CC(=O)Nc1cccc(C(=O)Nc2cccc(-c3ccc(-c4nc5cccc(C)c5[nH]4)s3)c2)c1 | 7.41% |
